Experimental data from the supplement of paper PMC8728848.
Some of the results follow.

Key:
Test in all cases: glycan array binding signal (z-score within array); higher = stronger binding
Settings in all cases: glycan notation: IUPAC condensed, linker removed
Fuc(a1-2)Gal = molecular target: Fuc(a1-2)Gal
Outline: (§1)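 Negative Z-scores can be read as non-binding. The Z-score is calculated within each array and then averaged across arrays of one protein sequence at different concentrations or buffers and across linkers. Arrays, 3228 in all, were curated from the Consortium for Functional Glycomics database and kept only where the protein sequence was available.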

Fuc(a1-2)Gal(b1-3)GalNAc = molecular target: Fuc(a1-2)Gal(b1-3)GalNAc
Outline: as §1

[1] = molecular target: Fuc(a1-2)Gal(b1-3)GalNAc(a1-3)[Fuc(a1-2)]Gal(b1-4)Glc
Outline: as §1

[2] = molecular target: Fuc(a1-2)Gal(b1-3)GalNAc(a1-3)[Fuc(a1-2)]Gal(b1-4)GlcNAc
Outline: as §1

[3] = molecular target: Fuc(a1-2)Gal(b1-3)GalNAc(b1-3)Gal
Outline: as §1

[4] = molecular target: Fuc(a1-2)Gal(b1-3)GalNAc(b1-3)Gal(a1-4)Gal(b1-4)Glc
Outline: as §1

[5] = molecular target: Fuc(a1-2)Gal(b1-3)GalNAc(b1-4)[Neu5Ac(a2-3)]Gal(b1-4)Glc
Outline: as §1

Fuc(a1-2)Gal(b1-3)GlcNAc = molecular target: Fuc(a1-2)Gal(b1-3)GlcNAc
Outline: as §1

[6] = molecular target: Fuc(a1-2)Gal(b1-3)GlcNAc(b1-2)Man(a1-3)[Fuc(a1-2)Gal(b1-3)GlcNAc(b1-2)Man(a1-6)]Man(b1-4)GlcNAc(b1-4)GlcNAc
Outline: as §1

[7] = molecular target: Fuc(a1-2)Gal(b1-3)GlcNAc(b1-2)Man(a1-3)[Fuc(a1-2)Gal(b1-3)GlcNAc(b1-2)Man(a1-6)]Man(b1-4)GlcNAc(b1-4)[Fuc(a1-6)]GlcNAc
Outline: as §1

[8] = molecular target: Fuc(a1-2)Gal(b1-3)GlcNAc(b1-3)Gal(b1-4)Glc
Outline: as §1

[9] = molecular target: Fuc(a1-2)Gal(b1-3)GlcNAc(b1-3)GalNAc
Outline: as §1

[10] = molecular target: Fuc(a1-2)Gal(b1-3)GlcNAc(b1-3)[Fuc(a1-2)Gal(b1-3)GlcNAc(b1-6)]GalNAc
Outline: as §1

[11] = molecular target: Fuc(a1-2)Gal(b1-3)GlcNAc(b1-3)[Fuc(a1-3)[Gal(b1-4)]GlcNAc(b1-6)]Gal(b1-4)Glc
Outline: as §1

[12] = molecular target: Fuc(a1-2)Gal(b1-3)GlcNAc(b1-3)[Gal(b1-4)GlcNAc(b1-6)]Gal(b1-4)Glc
Outline: as §1

[13] = molecular target: Fuc(a1-2)Gal(b1-3)GlcNAc(b1-3)[Neu5Ac(a2-6)Gal(b1-4)GlcNAc(b1-6)]Gal(b1-4)Glc
Outline: as §1

[14] = molecular target: Fuc(a1-2)Gal(b1-3)GlcNAc6S
Outline: as §1

[15] = molecular target: Fuc(a1-2)Gal(b1-3)[Fuc(a1-4)]GlcNAc
Outline: as §1

[16] = molecular target: Fuc(a1-2)Gal(b1-3)[Fuc(a1-4)]GlcNAc(b1-2)Man(a1-3)[Fuc(a1-2)Gal(b1-3)[Fuc(a1-4)]GlcNAc(b1-2)Man(a1-3)]Man(b1-4)GlcNAc(b1-4)GlcNAc
Outline: as §1

[17] = molecular target: Fuc(a1-2)Gal(b1-3)[Fuc(a1-4)]GlcNAc(b1-2)Man(a1-3)[Fuc(a1-2)Gal(b1-3)[Fuc(a1-4)]GlcNAc(b1-2)Man(a1-6)]Man(b1-4)GlcNAc(b1-4)GlcNAc
Outline: as §1

[18] = molecular target: Fuc(a1-2)Gal(b1-3)[Fuc(a1-4)]GlcNAc(b1-2)Man(a1-3)[Fuc(a1-2)Gal(b1-3)[Fuc(a1-4)]GlcNAc(b1-2)Man(a1-6)]Man(b1-4)GlcNAc(b1-4)[Fuc(a1-6)]GlcNAc(b1-4)[Fuc(a1-6)]GlcNAc
Outline: as §1

[19] = molecular target: Fuc(a1-2)Gal(b1-3)[Fuc(a1-4)]GlcNAc(b1-2)Man(a1-6)[Fuc(a1-2)Gal(b1-3)[Fuc(a1-4)]GlcNAc(b1-2)Man(a1-3)]Man(b1-4)GlcNAc(b1-4)[Fuc(a1-6)]GlcNAc
Outline: as §1

[20] = molecular target: Fuc(a1-2)Gal(b1-3)[Fuc(a1-4)]GlcNAc(b1-3)[Fuc(a1-3)[Gal(b1-4)]GlcNAc(b1-6)]Gal(b1-4)Glc
Outline: as §1

[21] = molecular target: Fuc(a1-2)Gal(b1-3)[Fuc(a1-4)]GlcNAc(b1-3)[Gal(b1-4)GlcNAc(b1-6)]Gal(b1-4)Glc
Outline: as §1

[22] = molecular target: Fuc(a1-2)Gal(b1-4)Fuc(a1-3)]GlcNAc(b1-2)Man(a1-3)[Fuc(a1-2)Gal(b1-4)[Fuc(a1-3)]GlcNAc(b1-2)Man(a1-6)]Man(b1-4)GlcNAc(b1-4)GlcNAc
Outline: as §1

Fuc(a1-2)Gal(b1-4)Glc = molecular target: Fuc(a1-2)Gal(b1-4)Glc
Outline: as §1

Fuc(a1-2)Gal(b1-4)Glc6S = molecular target: Fuc(a1-2)Gal(b1-4)Glc6S
Outline: as §1

Fuc(a1-2)Gal(b1-4)GlcNAc = molecular target: Fuc(a1-2)Gal(b1-4)GlcNAc
Outline: as §1

[23] = molecular target: Fuc(a1-2)Gal(b1-4)GlcNAc(b1-2)Man
Outline: as §1

[24] = molecular target: Fuc(a1-2)Gal(b1-4)GlcNAc(b1-2)Man(a1-3)[Fuc(a1-2)Gal(b1-4)GlcNAc(b1-2)Man(a1-6)]Man(b1-4)GlcNAc(b1-4)GlcNAc
Outline: as §1

[25] = molecular target: Fuc(a1-2)Gal(b1-4)GlcNAc(b1-2)Man(a1-3)[Fuc(a1-2)Gal(b1-4)GlcNAc(b1-2)Man(a1-6)]Man(b1-4)GlcNAc(b1-4)[Fuc(a1-6)]GlcNAc
Outline: as §1

[26] = molecular target: Fuc(a1-2)Gal(b1-4)GlcNAc(b1-2)[Fuc(a1-2)Gal(b1-4)GlcNAc(b1-4)]Man(a1-3)[Fuc(a1-2)Gal(b1-4)GlcNAc(b1-2)Man(a1-6)]Man(b1-4)GlcNAc(b1-4)GlcNAc
Outline: as §1

[27] = molecular target: Fuc(a1-2)Gal(b1-4)GlcNAc(b1-3)Gal(b1-4)GlcNAc
Outline: as §1

[28] = molecular target: Fuc(a1-2)Gal(b1-4)GlcNAc(b1-3)Gal(b1-4)GlcNAc(b1-2)Man(a1-3)[Fuc(a1-2)Gal(b1-4)GlcNAc(b1-3)Gal(b1-4)GlcNAc(b1-2)Man(a1-6)]Man(b1-4)GlcNAc(b1-4)GlcNAc
Outline: as §1

[29] = molecular target: Fuc(a1-2)Gal(b1-4)GlcNAc(b1-3)Gal(b1-4)GlcNAc(b1-3)Gal(b1-4)GlcNAc
Outline: as §1

[30] = molecular target: Fuc(a1-2)Gal(b1-4)GlcNAc(b1-3)GalNAc
Outline: as §1

[31] = molecular target: Fuc(a1-2)Gal(b1-4)GlcNAc(b1-3)[Fuc(a1-2)Gal(b1-4)GlcNAc(b1-6)]GalNAc
Outline: as §1

B1: Siglec-7-SA-PE-180 (Homo sapiens), Q9Y286 (protein)
chain: MLLLLLLPLLWGRERVEGQKSNRKDYSLTMQSSVTVQEGMCVHVRCSFSYPVDSQTDSDPVHGYWFRAGNDISWKAPVATNNPAWAVQEETRDRFHLLGDPQTKNCTLSIRDARMSDAGRYFFRMEKGNIKWNYKYDQLSVNVTALTHRPNILIPGTLESGCFQNLTCSVPWACEQGTPPMISWMGTSVSPLHPSTTRSSVLTLIPQPQHHGTSLTCQVTLPGAGVTTNRTIQLNVSYPPQNLTVTVFQGEGTASTALGNSSSLSVLEGQSLRLVCAVDSNPPARLSWTWRSLTLYPSQPSNPLVLELQVHLGDEGEFTCRAQNSLGSQHVSLNLSLQQEYTGKMRPVSGVLLGAVGGAGATALVFLSFCVIFIVVRSCRKKSARPAADVGDIGMKDANTIRGSASQGNLTESWADDNPRHHGLAAHSSGEEREIQYAPLSFHKGEPQDLSGQEATNNEYSEIKIPK
**Q.** With B1 as the binder, how does the “glycan array binding signal (z-score)” value (Fuc(a1-2)Gal) read?
**A.** -0.063

**Q.** What about the “glycan array binding signal (z-score)” value (Fuc(a1-2)Gal(b1-3)GalNAc) of the same binder?
**A.** -0.259

**Q.** And the “glycan array binding signal (z-score)” value [1]?
**A.** -0.317

**Q.** And the “glycan array binding signal (z-score)” value [2]?
**A.** -0.497

**Q.** And the “glycan array binding signal (z-score)” value [3]?
**A.** -0.083

**Q.** What about the “glycan array binding signal (z-score)” value [4] of the same binder?
**A.** -0.254

**Q.** And the “glycan array binding signal (z-score)” value [5]?
**A.** -0.345

**Q.** What about the “glycan array binding signal (z-score)” value (Fuc(a1-2)Gal(b1-3)GlcNAc) of the same binder?
**A.** -0.199

**Q.** What about the “glycan array binding signal (z-score)” value [6] of the same binder?
**A.** -0.335

**Q.** What about the “glycan array binding signal (z-score)” value [7] of the same binder?
**A.** -0.488

**Q.** And the “glycan array binding signal (z-score)” value [8]?
**A.** -0.174

**Q.** And the “glycan array binding signal (z-score)” value [9]?
**A.** -0.26

**Q.** And the “glycan array binding signal (z-score)” value [10]?
**A.** 0.035

**Q.** What about the “glycan array binding signal (z-score)” value [11] of the same binder?
**A.** -0.293

**Q.** And the “glycan array binding signal (z-score)” value [12]?
**A.** -0.106

**Q.** And the “glycan array binding signal (z-score)” value [13]?
**A.** -0.054

**Q.** And the “glycan array binding signal (z-score)” value [14]?
**A.** 0.128

**Q.** What about the “glycan array binding signal (z-score)” value [15] of the same binder?
**A.** -0.018

**Q.** And the “glycan array binding signal (z-score)” value [16]?
**A.** -0.086

**Q.** And the “glycan array binding signal (z-score)” value [17]?
**A.** 1.25

**Q.** What about the “glycan array binding signal (z-score)” value [18] of the same binder?
**A.** 0.111

**Q.** What about the “glycan array binding signal (z-score)” value [19] of the same binder?
**A.** 0.199

**Q.** And the “glycan array binding signal (z-score)” value [20]?
**A.** -0.177

**Q.** And the “glycan array binding signal (z-score)” value [21]?
**A.** -0.392

**Q.** And the “glycan array binding signal (z-score)” value [22]?
**A.** 0.426

**Q.** And the “glycan array binding signal (z-score)” value (Fuc(a1-2)Gal(b1-4)Glc)?
**A.** -0.474

**Q.** What about the “glycan array binding signal (z-score)” value (Fuc(a1-2)Gal(b1-4)Glc6S) of the same binder?
**A.** 0.053

**Q.** And the “glycan array binding signal (z-score)” value (Fuc(a1-2)Gal(b1-4)GlcNAc)?
**A.** -0.302

**Q.** What about the “glycan array binding signal (z-score)” value [23] of the same binder?
**A.** 0.028

**Q.** And the “glycan array binding signal (z-score)” value [24]?
**A.** -0.13

**Q.** And the “glycan array binding signal (z-score)” value [25]?
**A.** -0.228

**Q.** What about the “glycan array binding signal (z-score)” value [26] of the same binder?
**A.** -0.374

**Q.** What about the “glycan array binding signal (z-score)” value [27] of the same binder?
**A.** -0.204

**Q.** What about the “glycan array binding signal (z-score)” value [28] of the same binder?
**A.** 0.796

**Q.** And the “glycan array binding signal (z-score)” value [29]?
**A.** -0.428

**Q.** And the “glycan array binding signal (z-score)” value [30]?
**A.** -0.106

**Q.** What about the “glycan array binding signal (z-score)” value [31] of the same binder?
**A.** -0.204
